Test results taken from PMC4336329 (PLoS ONE, 2015).
The whole screen tested about 310,000 compounds, of which about 14,000 (4.5%) showed an effect of 50% or more. The effect is printed as a negative number. This is one part of the list.

molecular target: human ether-à-go-go-related gene (hERG) potassium channel (human, UniProt Q12809); test: primary screen, population patch clamp on CHO cells stably expressing hERG
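Also: peak tail current of the secondary pulse compared with the same well before compound.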

Chain of human ether-à-go-go-related gene (hERG) potassium channel (Q12809 whole entry, looked up): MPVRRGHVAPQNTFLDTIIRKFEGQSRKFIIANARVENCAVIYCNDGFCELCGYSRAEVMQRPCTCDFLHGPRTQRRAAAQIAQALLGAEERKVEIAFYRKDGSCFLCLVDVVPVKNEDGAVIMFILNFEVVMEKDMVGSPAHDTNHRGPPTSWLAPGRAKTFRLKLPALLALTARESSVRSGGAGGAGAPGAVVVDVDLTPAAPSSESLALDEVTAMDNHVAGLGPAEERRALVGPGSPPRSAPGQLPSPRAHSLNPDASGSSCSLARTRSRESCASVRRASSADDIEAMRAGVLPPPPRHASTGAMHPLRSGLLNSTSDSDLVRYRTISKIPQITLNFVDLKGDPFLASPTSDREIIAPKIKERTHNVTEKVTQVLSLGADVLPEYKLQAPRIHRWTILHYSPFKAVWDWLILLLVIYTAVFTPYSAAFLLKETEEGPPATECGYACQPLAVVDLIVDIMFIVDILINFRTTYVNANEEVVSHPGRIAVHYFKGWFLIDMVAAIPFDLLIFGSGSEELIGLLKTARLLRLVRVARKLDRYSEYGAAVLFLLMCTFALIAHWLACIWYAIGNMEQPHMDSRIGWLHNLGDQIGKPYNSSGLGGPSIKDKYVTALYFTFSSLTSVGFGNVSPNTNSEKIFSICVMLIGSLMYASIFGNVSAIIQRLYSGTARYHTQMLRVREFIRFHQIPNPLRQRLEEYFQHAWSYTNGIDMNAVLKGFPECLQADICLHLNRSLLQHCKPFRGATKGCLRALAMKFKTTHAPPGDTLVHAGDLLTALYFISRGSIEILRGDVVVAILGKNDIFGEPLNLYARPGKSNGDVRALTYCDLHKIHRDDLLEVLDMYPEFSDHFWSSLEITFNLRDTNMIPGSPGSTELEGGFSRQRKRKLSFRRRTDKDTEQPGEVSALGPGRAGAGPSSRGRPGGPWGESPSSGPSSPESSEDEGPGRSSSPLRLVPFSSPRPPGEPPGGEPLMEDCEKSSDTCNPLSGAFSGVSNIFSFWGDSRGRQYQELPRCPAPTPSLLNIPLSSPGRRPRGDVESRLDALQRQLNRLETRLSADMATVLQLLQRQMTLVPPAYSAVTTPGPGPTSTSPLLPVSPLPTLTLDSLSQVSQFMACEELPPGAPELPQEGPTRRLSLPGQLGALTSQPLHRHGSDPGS

Row | Structure (SMILES) | hERG current change (%, negative = inhibition) at 10uM [%]
1 | CC(=O)N1C(=O)/C(=C2\SC(=S)N(NC(=O)c3ccc(O)cc3)C2=O)c2ccccc21 | 9.51
2 | CCc1ccc(NS(=O)(=O)c2cc3c4c(c2)CCN4C(=O)CC3)cc1 | -8.2
3 | CC(C)COP(=O)(c1ccc(N(C)C)cc1)C(O)c1ccccc1 (stereo not drawn) | 12.8
4 | O=C(/C=C/c1ccc(F)cc1)NCCC1=CCCCC1 | -24.2
5 | CC(c1ccco1)N(C(=O)c1ccccc1NS(=O)(=O)c1cccc([N+](=O)[O-])c1)c1ccccn1.Cl (stereo not drawn) | -7.23
6 | Cc1[nH]c2ccccc2c1/C=N/NC(=O)C1CC1(c1ccccc1)c1ccccc1 (stereo not drawn) | 11.7
7 | COc1ccccc1OCCC(=O)NCc1ccc2c(c1)OCO2 | -7.18
8 | Cl.Oc1cccc(C(O)CNCc2ccc(OCc3ccc(Cl)cc3Cl)cc2)c1 (stereo not drawn) | 7.89
9 | CCN(CC)C(=O)c1ccc(NC(=O)c2cccc(F)c2)cc1 | -8.83
10 | COc1cccc(N2CCN(CC(=O)Nc3ccc(SC(F)F)cc3)CC2)c1 | -65.5
11 | COc1ccc(S(=O)(=O)N(C)CC(=O)NCc2ccc3c(c2)OCO3)cc1 | -8.31
12 | CC(C)c1ccc(Nc2nc(Cl)nc(NCCO)n2)cc1 | -0.646
13 | CCOc1ccccc1C1C(C#N)=C(N)Oc2cc(C)n(Cc3ccccn3)c(=O)c21 (stereo not drawn) | -5.58
14 | c1ccc(Cn2nc(-c3ccccc3)nc2-c2ccccc2)cc1 | -2.5
15 | CCCOC(c1ccccc1)(c1ccccc1)C(Oc1nc(C)cc(C)n1)C(=O)O (stereo not drawn) | 21.5
16 | CC(Oc1ccccc1)C(=O)N/N=C/c1ccccn1 (stereo not drawn) | 2.08
17 | N#CCCn1cc(C(CC(=O)c2ccccc2)C(=O)O)c2ccccc21 (stereo not drawn) | 4.55
18 | COc1ccc2cc(C#N)c(N3CCN(Cc4nnnn4CCC(C)C)CC3)nc2c1 | -0.299
19 | COc1ccc(NC(=O)c2ccc(NS(=O)(=O)c3c(C)noc3C)cc2)cc1OC | 23.2
20 | CO/N=C/Cc1c([N+](=O)[O-])c(C)nn1C | 8.6
21 | COc1ccc2[nH]c(=O)c(CN(CCCN(C)C)C(=O)Nc3ccc(F)cc3)cc2c1 | -65.7
22 | COC(=O)c1cc2n(n1)CCN(Cc1cccc(OC)c1)C2=O | -4.91

Row | Structure (SMILES) | hERG current change (%, negative = inhibition) at 10uM [%]
23 | COc1cccc(CC2(CO)CCCN(Cc3ccc4c(c3)OCCO4)C2)c1 (stereo not drawn) | -58.5
24 | COc1ccc(Oc2cn[nH]c2-c2ccc(O)cc2O)cc1 | -6.52
25 | CCCCCCCCn1cnc2c(N)c(C)c(C)cc21 | 12.1
26 | CCc1ccccc1N(CC(=O)NC1CCCCC1)C(=O)CCC(=O)Nc1ccccn1 | 5.54
27 | O=C1CCC([N+](=O)[O-])C(c2ccc(Cl)c([N+](=O)[O-])c2)N1 (stereo not drawn) | 10.6
28 | CCCCOc1ccc(N2C(=O)CC(NCc3ccncc3)C2=O)cc1 (stereo not drawn) | -32.7
29 | NS(=O)(=O)c1ccc(CCNC(=O)CNC(=O)c2ccc(F)cc2)cc1 | 25.3
30 | CCN(Cc1ccccc1)S(=O)(=O)c1cc2[nH]c(=O)c(=O)[nH]c2cc1C | 6.58
31 | COc1ccccc1C(=O)NC(=O)COC(=O)c1cc[n+]([O-])cc1 | -3.56
32 | COc1ccccc1C(=O)NC1CCN(C(=S)NCCc2ccccc2)CC1 | -14.4
33 | O=C(OCC(=O)N1CCN(c2ccccc2)CC1)c1ccccn1 | -6.34
34 | Cc1ccccc1C(=O)N/N=C/c1ccncc1 | 23.8
35 | CCC(C)(C)C1CCc2[nH]nc(C(=O)NC(C)C)c2C1 (stereo not drawn) | 12.7
36 | Nc1nc(NCc2ccccc2)nc(Nc2cccc(F)c2)c1[N+](=O)[O-] | 12.9
37 | O=C(CCNc1ccc(F)cc1)c1ccco1 | -1.99
38 | CCN(CC)CCC(c1cc(OC)c(OC)c(OC)c1)c1c(OC)cc(OC)c2c(-c3ccccc3)cc(=O)oc12 (stereo not drawn) | -16.8
39 | COCc1cc(=O)[nH]c(Sc2c(-c3ccccc3)c3ccc(Cl)cc3[nH]c2=O)n1 | 20.4
40 | CN(CC(=O)NCCc1ccccc1)S(=O)(=O)c1ccc(Br)s1 | -10.4
41 | CCCCC/C(=N\O)c1c[nH]c2ccccc12 | -14.4
42 | CC(C)(C)c1cc(=O)n2c(nc3ccccc32)[nH]1 | 20.3
43 | COc1ccc(CCNC(=O)c2c[nH]c3ccccc3c2=O)cc1OC | -1.95
44 | CCOC(=O)c1ccc(NC(=O)CCC(=O)OC)cc1 | 15.4

Row | Structure (SMILES) | hERG current change (%, negative = inhibition) at 10uM [%]
45 | CC(NS(=O)(=O)c1ccc(OCC(=O)Nc2cccc([N+](=O)[O-])c2)cc1)c1ccccc1 (stereo not drawn) | 3.21
46 | CCCNC(=O)C(=O)NCc1ccccn1 | 7.92
47 | Cc1ccccc1S(=O)(=O)Nc1ncnc2scc(-c3ccccc3)c12 | -19.3
48 | O=C(CCN1C(=O)c2ccccc2C1=O)C1=NN[C@@H]2C(=O)N(c3ccc4c(c3)OCO4)C(=O)[C@H]12 | -7.14
49 | Cc1cc(OC(C)C(=O)NCCCn2ccnc2)c2c(C)cc(=O)oc2c1 (stereo not drawn) | -15.4
50 | COc1ccc(C[C@@H]2CN3C(=NC[C@@H]3C)N2CCNC(=O)c2ccc(C)c(Br)c2)cc1 | -71.4
51 | O=C(Oc1ccccc1C(=O)Nc1ccccc1)c1ccc(Br)c([N+](=O)[O-])c1 | 6.7
52 | O=C(c1ccc(COc2ccccc2Br)cc1)N1CCCCCC1 | 12.6
53 | Cc1ccc(-c2cc(C(=O)OCC(=O)Nc3ncc(C(F)(F)F)cc3Cl)c3ccccc3n2)cc1 | 6.23
54 | Cc1[nH]c2ccc(F)cc2c1CCNC(=O)C1CCCCC1C(=O)OCC(F)(F)F (stereo not drawn) | -18.7
55 | O=C(COC(=O)c1cc(-c2ccccc2)nc2ccccc12)Nc1ccc2c(c1)OCO2 | 10.7
56 | Cn1c(=NC(=O)CCl)sc2ccccc21 | -12.6
57 | COc1ccc(N2C(=O)C(Cl)=C(N3CCOCC3)C2=O)cc1 | 9.43
58 | C=CCn1c(SCCOc2ccc(OC)cc2)nnc1C(C)NC(=O)Cc1ccc(OC)cc1 (stereo not drawn) | -28
59 | CN1C(C(=O)NCc2ccccc2)CC2Cn3c(nc4cc5ccccc5cc43)C21 (stereo not drawn) | -67.9
60 | CCOc1ccc(/C=N/NC(=O)COc2ccccc2-c2ccccc2)cc1 | 3.13
61 | COc1cccc(SCc2noc(C(=O)NCc3ccccc3)c2C(=O)NCc2ccccc2)c1 | 20.2
62 | Cc1cc2c(=O)n(C)c(SCC(=O)NC3CCCC3)nc2s1 | 5.07
63 | Cc1ccc(C(=O)CSc2nc3ccc(C(=O)NCCN4CCCCC4)cc3c(=O)[nH]2)cc1 | 9.56
64 | CC(=O)Nc1c(O)n(C)c2ccccc12 | 13.6
65 | COC(=O)C(O)(c1ccc(N(C)C(=O)c2ccc(Cl)c(Cl)c2)cc1)C(F)(F)F (stereo not drawn) | -1.31
66 | Cc1ccccc1CN1CCN(c2ccc(Cl)cc2)CC1 | 7.72

Row | Structure (SMILES) | hERG current change (%, negative = inhibition) at 10uM [%]
67 | c1cc(CCCc2ccncc2)ccn1 | -18.5
68 | CN1CCC(N(C)S(=O)(=O)c2ccc(C(C)(C)C)cc2)CC1.Cl | -33.3
69 | COC(=O)CSc1nc2c(c(=O)n(C)c(=O)n2C)n1CCC(C)C | -5.54
70 | Cc1ccc(S(=O)(=O)c2nnn3c2nc(Nc2cccc(C)c2)c2ccccc23)cc1 | 17.2
71 | COc1ccc(N2CCN(C(=O)COc3ccccc3)CC2)cc1 | -20.6
72 | O=C(c1nc2ccc(Cl)cn2c1CNCCc1cnccn1)N1CCCCCCC1 | -8.1
73 | Cl.O=S(=O)(c1ccccc1)N(CC(O)CN1CCCCC1)c1ccccc1 (stereo not drawn) | -53.2
74 | Oc1[nH]c2ccccc2c1/C=N/c1nccs1 | 4.65
75 | CN1CCN(C(=O)/C(=C/c2cccs2)NC(=O)c2ccco2)CC1 | -70.5
76 | O=S(=O)(c1ccc(S(=O)(=O)N2CCCC2)cc1)N1CCCCCC1 | 7.43
77 | Cc1cc(C)n(C(=O)c2cccc(S(=O)(=O)N3CCOCC3)c2)n1 | 8.76
78 | CSCC[C@H](NC(=O)NCCC1=CCCCC1)C(=O)O | -13.8
79 | COc1ccc2nc(NC(=O)CS(=O)(=O)c3ccc(C)cc3)sc2c1 | 12.6
80 | Cc1ccccc1NC(=O)c1ccc(Cl)c(NC(=O)c2ccncc2)c1 | -32.1
81 | CC(C)(C)OC(=O)NCc1ccc(CNC(=O)c2[nH]cnc2C(=O)NC2CCN(C(=O)OC(C)(C)C)CC2)cc1 | -2.61
82 | O=C(Nc1nc(-c2ccccn2)cs1)c1ccco1 | -6.74
83 | CN1CCN(CCC(=O)N/N=C/c2cc([N+](=O)[O-])ccc2O)CC1 | 1.18
84 | S=C(Nc1ccc(Cl)cc1Cl)Nc1ccccc1Oc1ccccc1 | 13.6
85 | CCN(CC)c1nc2c(c(=O)n(C)c(=O)n2C)n1CC(=O)c1ccccc1 | -14.9
86 | CC(C)OC(=O)CSc1nnc(-c2ccccc2)n1N | 9.92
87 | COC(=O)CN(c1cccc(F)c1)S(C)(=O)=O | -11.3
